Here are results for 42 compounds from ChEMBL document CHEMBL4888484, “Replenishing the malaria drug discovery pipeline: Screening and hit evaluation of the MMV Hit Generation Library 1 (HGL1) against asexual blood stage Plasmodium falciparum ,using a nano luciferase reporter read-out” (2022).

Each structure is given as a SMILES string. Out of some 150,000 compounds screened, about 540 (0.36%) showed an effect of 50% or more. The list shows a part of the results.

The subject of the assay is Plasmodium falciparum. The assay can be described thus: Primary screen in NF54 nanoGlo assay, in single point, at 2uM, 72h; a lower Z score goes with more inhibition. Type of assay: functional, Erythrocyte. The following applies: timepoint 72 hour.
On to `CNC(=O)C[C@H]1CCN(Cc2nc(C)cs2)C1`, for which the “% Inhibition” value is -6% and the Z score stood at 0.81.

On to `Cc1ccc(F)cc1-c1nnc(NS(=O)(=O)c2ccoc2)o1`, for which the “% Inhibition” value amounted to 32% and the Z score is listed as -3.06.

For `CN1CCCCCCN(C(=O)NC2CCCCC2)CCC1=O`, the “% Inhibition” value is -17% and the Z score is listed as 2.21.

As for `CNc1nc2c(c(C(=O)N3CCCC3)n1)CN(Cc1cccc(-c3ccc(C)o3)c1)CC2`, the “% Inhibition” value is listed as -10% and the Z score was 1.2.

Regarding `COc1cccc(-c2ccc3c(c2)O[C@H]2CN(C4CCCC4)C[C@H]2N(C)C3=O)c1`, the “% Inhibition” value is -1% and the Z score was 0.12.

For the compound `CN1C(=O)N[C@](C)(c2ccc(NCc3nnn(C(C)(C)C)n3)cc2)C1=O`, the “% Inhibition” value is on record as -4% and the Z score worked out at 0.37.

For `Cc1cccc(NC(=O)Cc2nnn[nH]2)c1`, the “% Inhibition” value was -6% and the Z score turned out to be 0.75.

With `O=C(O)c1ccc([C@H]2CCN(CC(=O)N3CCCCCC3)C2)cc1`, the “% Inhibition” value worked out at 2% and the Z score is -0.25.

Consider `Cc1ccc(CCC(=O)Nc2ccc(C)c(-c3ncco3)c2)o1`, for which the “% Inhibition” value was -2% and the Z score stood at 0.32.

On to `CC1CC1NC(=O)C(NS(C)(=O)=O)C(C)(C)C` (centres undefined), for which the “% Inhibition” value is 33% and the Z score is -4.79.

`C[C@H](NCC1(O)CCCCCC1)c1cc2n(n1)CCC2`: the “% Inhibition” value is reported as -13% and the Z score is on record as 1.97.

On to `O=C(Nc1cc(-c2ccccc2)ns1)N1CCC[C@H](CO)C1`, for which the “% Inhibition” value was -46% and the Z score came out at 5.35.

With `NC(=O)CN1CCc2[nH]nc(-c3cccc(F)c3)c2C1`, the “% Inhibition” value worked out at 2% and the Z score was -0.44.

Take `Cc1cccc(CN2CC(n3cc(C(=O)NCC4CC4)nn3)C2)c1`: the “% Inhibition” value is reported as -4% and the Z score stood at 0.71.

`O=c1ccncn1CC1CCN(c2ncnc3[nH]ccc23)CC1`: the “% Inhibition” value is recorded as 4% and the Z score is -0.69.

`O=C(c1ccc(F)cc1)N1CCN(c2ncnc3c(F)cccc23)CC1`: the “% Inhibition” value was -13% and the Z score worked out at 1.94.

As for `COCCn1cncc1CNC(=O)CN1[C@H](C)CCC[C@@H]1C`, the “% Inhibition” value is recorded as -12% and the Z score amounted to 1.64.

`Cc1ccc(C(=O)N[C@H]2CN(C3CCCCC3)C[C@@H]2C2CC2)c(=O)n1C`: the “% Inhibition” value was -11% and the Z score turned out to be 1.83.

Take `CCC(=O)Nc1ccc(NC(=O)[C@@H]2CCCN2Cc2ccccc2)c(C)c1`: the “% Inhibition” value was -1% and the Z score amounted to 0.16.

For `CCCCC(=O)N(CC(N)=O)Cc1ccccc1`, the “% Inhibition” value was -12% and the Z score came to 1.

As for `O=C(C[C@H]1CCCO1)Nc1cc(Br)c(F)cc1F`, the “% Inhibition” value was 7% and the Z score is listed as -0.71.

As to `Nc1nc(CN2CCC3CCCCC3C2)nc(Nc2ccccc2)n1` (centres undefined), the “% Inhibition” value is on record as -2% and the Z score was determined as 0.18.

As for `CC1(C)CN(C(=O)c2coc(COc3cccc4cccnc34)n2)CCO1`, the “% Inhibition” value is -2% and the Z score came out at 0.36.

`COc1cccc(CC(=O)N2Cc3cccnc3C2)c1`: the “% Inhibition” value is reported as -17% and the Z score came to 2.01.

Regarding `CCCc1cc(CNS(=O)(=O)c2cc(-c3ccno3)ccc2OC)on1`, the “% Inhibition” value is on record as -25% and the Z score amounted to 2.17.

Take `CCCc1nc(C)c(CNC(=O)c2nc(C(C)C)cs2)s1`: the “% Inhibition” value was found to be 26% and the Z score is listed as -3.25.

On to `CCn1nc(C)c(CCN(C)C(=O)Nc2ccc3c(c2)OCCO3)c1C`, for which the “% Inhibition” value is -6% and the Z score is 0.63.

Turning to `COC(=O)N1CCC(NCc2c(C)c(C#N)n3ccccc23)CC1`, the “% Inhibition” value is reported as -2% and the Z score is reported as 0.37.

As to `Cc1ccc(-n2nc(C(=O)c3ccc(Cl)cc3)c(C#N)c2-c2ccccc2)cc1`, the “% Inhibition” value was -7% and the Z score amounted to 0.78.

On to `CCOC(=O)Nc1ccc(Br)cn1`, for which the “% Inhibition” value came to 1% and the Z score is given as -0.23.

As for `O=C(c1cc(=O)c(OCc2cccc(Cl)c2)c[nH]1)N1CCc2ccccc2C1`, the “% Inhibition” value is -3% and the Z score is 0.47.

For the compound `Fc1cccc2c(N3CCN(Cc4cccs4)CC3)ncnc12`, the “% Inhibition” value was -33% and the Z score is 5.4.

On to `O=C(Nc1ccc(Cl)cc1C(F)(F)F)[C@H](NC1CCCCCCC1)c1ccccc1`, for which the “% Inhibition” value is given as -14% and the Z score was determined as 2.36.

With `O=C(O)c1cncc(-n2ccnc2-c2ccnc3ccccc23)c1`, the “% Inhibition” value is -18% and the Z score was 2.85.

Take `COc1ccc(C/C(=N\NC(=O)OC(C)(C)C)NCC(F)(F)F)cc1`: the “% Inhibition” value is -3% and the Z score is on record as 0.36.

`COCCN(CC1(C)CCOCC1)C(=O)NCc1cccc(F)c1`: the “% Inhibition” value is reported as -10% and the Z score turned out to be 1.61.

As for `Cc1ccc(S(=O)(=O)N2C(=O)CC[C@H]2C(=O)N2CCC(Cc3ccccc3)CC2)cc1`, the “% Inhibition” value is listed as -17% and the Z score was 2.35.

In the case of `CCOC(=O)[C@@H](c1cc(Cl)cc(Cl)c1)N(CC)Cc1csc(CC(=O)NC)n1`, the “% Inhibition” value is listed as 0% and the Z score is -0.05.

With `CN(Cc1ccccn1)c1ccc(C(=O)NC2CCCC2)nn1`, the “% Inhibition” value worked out at 0% and the Z score was 0.03.

Consider `O=C(O)CN(CCc1ccc(Cl)cc1)CC1CC1`, for which the “% Inhibition” value is on record as -4% and the Z score is on record as 0.36.

In the case of `CCOC(=O)C1CCN(c2nc(-c3ccc4c(c3)OCO4)c3c(N)n(-c4ccc(Cl)cc4)nc3n2)CC1`, the “% Inhibition” value is on record as -20% and the Z score stood at 2.92.

For the compound `Cc1nc(CC(=O)Nc2ccc(N3CCCCC3)cn2)c(C)s1`, the “% Inhibition” value is on record as -8% and the Z score is 1.63.

One may read the % Inhibition as the relative decrease from the control value, in per cent.
